# According to publication PMC4336329 (PLoS ONE, 2015):
# Hit rate of the full screen: of about 310,000 compounds, about 2,200 (0.71%) showed an effect of 50% or more. Effects have a minus sign here. This is one part of the list.
# Molecular target: human ether-à-go-go-related gene (hERG) potassium channel (human, UniProt Q12809)
# Assay: primary screen, population patch clamp on CHO cells stably expressing hERG
# Chain of human ether-à-go-go-related gene (hERG) potassium channel (Q12809 whole entry, looked up): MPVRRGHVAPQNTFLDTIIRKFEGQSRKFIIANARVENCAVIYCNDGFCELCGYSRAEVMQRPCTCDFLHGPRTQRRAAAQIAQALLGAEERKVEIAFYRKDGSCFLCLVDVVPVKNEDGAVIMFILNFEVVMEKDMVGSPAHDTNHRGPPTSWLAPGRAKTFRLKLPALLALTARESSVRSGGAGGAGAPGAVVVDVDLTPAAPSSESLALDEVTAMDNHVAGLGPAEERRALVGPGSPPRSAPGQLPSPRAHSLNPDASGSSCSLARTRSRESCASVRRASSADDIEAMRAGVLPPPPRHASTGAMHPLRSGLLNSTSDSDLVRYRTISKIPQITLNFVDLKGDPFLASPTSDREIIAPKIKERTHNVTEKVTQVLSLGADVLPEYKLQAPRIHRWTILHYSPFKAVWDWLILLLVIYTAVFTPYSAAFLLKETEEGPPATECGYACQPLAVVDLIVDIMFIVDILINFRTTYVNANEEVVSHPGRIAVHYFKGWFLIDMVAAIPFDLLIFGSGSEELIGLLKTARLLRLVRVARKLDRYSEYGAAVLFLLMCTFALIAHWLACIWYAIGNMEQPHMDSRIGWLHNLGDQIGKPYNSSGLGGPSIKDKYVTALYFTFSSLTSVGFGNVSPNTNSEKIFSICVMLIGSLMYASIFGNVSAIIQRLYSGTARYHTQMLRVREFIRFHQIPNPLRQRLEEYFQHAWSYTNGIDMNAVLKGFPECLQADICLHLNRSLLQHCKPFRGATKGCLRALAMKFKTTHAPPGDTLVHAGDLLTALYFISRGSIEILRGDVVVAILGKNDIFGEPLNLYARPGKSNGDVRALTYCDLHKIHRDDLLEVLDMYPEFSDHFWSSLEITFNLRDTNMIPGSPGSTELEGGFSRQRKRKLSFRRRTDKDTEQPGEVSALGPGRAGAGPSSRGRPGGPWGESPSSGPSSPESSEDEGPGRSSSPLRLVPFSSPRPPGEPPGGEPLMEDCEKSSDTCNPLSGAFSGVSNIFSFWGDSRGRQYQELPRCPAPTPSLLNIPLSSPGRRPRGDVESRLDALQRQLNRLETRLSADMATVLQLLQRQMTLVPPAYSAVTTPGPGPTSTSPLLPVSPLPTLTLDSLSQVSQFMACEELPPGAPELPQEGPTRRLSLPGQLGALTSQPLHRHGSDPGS
row,SMILES,"hERG current change (%, negative = inhibition) at 1uM"
1,Cc1cc(C)c(N=C2C(=O)Nc3ccccc32)c(C)c1,7.19%
2,CCOC(=O)C1CCN(C2=C(NS(=O)(=O)c3ccc(Br)cc3)C(=O)c3ccccc3C2=O)CC1,10.4%
3,CC1CCCCC1NC(=O)CSc1nnnn1-c1ccccc1 (stereo not shown),3.16%
4,CCc1ccccc1NC(=O)c1ccc(F)c(S(=O)(=O)N2CCC(C(N)=O)CC2)c1,8.64%
5,Cc1ccc(S(=O)(=O)CCN2CCN(c3ccccn3)CC2)cc1,8.75%
6,O=C(CN1CCC(C(=O)c2ccc3c(c2)OCCO3)CC1)Nc1ccccc1C(F)(F)F,12%
7,CN(C)C(=O)CSc1nnc(-c2cccs2)n1-c1ccccc1,10%
8,CCn1c(SCc2cc(=O)[nH]c3ccccc23)nnc1C1CC1,8.69%
9,CC1(C(=O)CSc2nc3ccccc3[nH]2)CCC(=O)O1 (stereo not shown),-38.6%
10,COc1ccc(CN2CN(S(=O)(=O)c3ccccc3)c3nc4ccccc4nc32)cc1,5.6%
11,C[C@H](NC(=O)Nc1cccc(Br)c1)C(=O)O,3.4%
12,CN(C)C(=O)c1ccc(-n2cccn2)nc1,4.76%
13,CCOC(=O)c1c(C)[nH]c(C(=O)N2CCN(CC)CC2)c1C,18.9%
14,Cl.N=c1sccn1CC(=O)Nc1cc(S(=O)(=O)N2CCCC2)ccc1Cl,-1.64%
15,CC(C)(C)CN1CCC(Oc2cccc(C(=O)N3CCNC(=O)C3(C)C)c2)CC1,2.39%
16,O=C1CC(N2CCC(c3nc4ccccc4s3)CC2)C(=O)N1Cc1ccccc1 (stereo not shown),-25.3%
17,CCOC(=O)c1c(C)[nH]c(C(=O)COC(=O)CNS(=O)(=O)c2ccc(C)cc2)c1C,11.6%
18,CNC(=S)N/N=C/c1ccc(N(C)C)cc1,-2.23%
19,COc1cccc(C2CC(c3cccc(Br)c3)n3nc(N)nc3N2)c1 (stereo not shown),6.58%
20,CCOCCCNCc1ccc(OCCC(C)C)c(OC)c1.O=C(O)C(=O)O,2.13%
21,CC(=O)Nc1ccc(C(=O)Nc2ccc(S(=O)(=O)N3CCOCC3)cc2)cc1,17.1%
22,CCOC(=O)CSc1nnc(CSc2nc3sc4c(c3c(=O)[nH]2)CCC4)n1-c1ccccc1,7.38%

row,SMILES,"hERG current change (%, negative = inhibition) at 1uM"
1,Cl.OC(COc1ccc(OCC(O)CN2CCCCCC2)cc1)CN1CCCCCC1 (stereo not shown),11.6%
2,CC1=C(C(=O)OC2CCCC2)C(c2coc3ccc(C)cc3c2=O)C2=C(CCCC2=O)N1 (stereo not shown),14.5%
3,COc1ccc(C(=S)N2CCN(c3ccccc3C)CC2)cc1,8.32%
4,CCn1cc(/C=C(\NC(=O)c2cc(OC)c(OC)c(OC)c2)C(=O)N2CCN(C)CC2)c2ccccc21,10.5%
5,Br.CCN(CC)CCn1c(=N)n(CCOc2ccccc2)c2ccccc21,-8.24%
6,Cl.O=C(CCN(CCO)Cc1ccccc1)Nc1ccc(Br)cc1,10.3%
7,O=C(Nc1ccc(Cl)cc1)c1cccc(OC(=S)N2CCOCC2)c1,4.22%
8,CCC(C)NC(=O)Cn1c(=O)n(CCCC(=O)NCc2ccccc2Cl)c(=O)c2ccccc21 (stereo not shown),13.4%
9,O=[N+]([O-])c1ccc(N2CCOCC2)cn1,13.5%
10,Cc1ccc(C(=O)NNC(=O)CSc2nnc(C3CC3)n2C)cc1,5.02%
11,Cc1ccccc1CC(=O)NCCN1CCOCC1,20.5%
12,COc1ccc2cc(-c3csc(-c4cccnc4)n3)ccc2c1,14.5%
13,O=C(N/N=C/c1ccccn1)c1cc(-c2ccc(Cl)cc2)nc2ccccc12,16%
14,O=c1c2ccccc2[nH]c(=S)n1CCCN1CCN(c2ccccc2F)CC1,16.5%
15,Cc1cccc2nc(-c3ccco3)oc(=O)c12,22%
16,CN1[C@@H]2CC[C@H]1CC(OC(=O)C1C=Nc3ccccc31)C2.Cl (stereo partly shown),-23.5%
17,CCc1ccccc1NC(=O)CNC(=O)CCNC(=O)Nc1ccccc1,7.01%
18,CCC1=C(OC(=O)N(CC)CC)N2C(=O)OC(=NCCc3c[nH]c4ccccc34)[C@]2(C)[C@H]2C1=CC[C@H]1C(=O)N(CC(=O)OC)C(=O)[C@H]12,9.15%
19,CCc1nc(N2CCN(C(=O)c3ccccc3)CC2)c2c3c(sc2n1)CCCC3,14.1%
20,O=C(Nc1ccncc1)c1ccccc1[N+](=O)[O-],8.77%
21,CCOC(=O)c1cc2sccc2n1CC(=O)N1CCc2ccccc21,12.8%
22,O=C(Nc1cccc(S(=O)(=O)N2CCCCC2)c1)C1CC(=O)N(Cc2ccccc2)C1 (stereo not shown),-1.05%

row,SMILES,"hERG current change (%, negative = inhibition) at 1uM"
1,O=C(c1cc(-c2ccc(Br)cc2)on1)N1CCc2ccccc2C1,13.6%
2,Cc1ccnc(NC(=O)c2ccc(NS(=O)(=O)/C=C/c3ccccc3)cc2)c1,5.37%
3,CC(=O)Nc1ccc(NC(=O)C(C)OC(=O)CCCOc2ccc(Cl)c(C)c2)cc1 (stereo not shown),14.1%
4,Fc1cnc(N2CCOCC2)nc1N1CCc2ccccc21,14.1%
5,CCCOc1ccc(C(=O)N2CCCc3ccccc32)cc1,2.91%
6,COC(=O)c1cc(OC)c(OC)cc1NC(=O)c1ccc(C)cc1,-0.757%
7,Cc1cc(C)c2nc(-c3ccccn3)cc(C(=O)Nc3ccc(S(=O)(=O)Nc4cc(C)on4)cc3)c2c1,9.7%
8,Cc1ccc(S(=O)(=O)NNC(=O)c2cccc(O)c2)cc1,6.1%
9,CCN(CC)C(=S)Oc1ccc(Cl)cc1Cl,11.7%
10,CN(C)/C=N/c1c(C#N)cnn1-c1nc2ccccc2s1,7.52%
11,Cc1cc(S(=O)(=O)N2CCOCC2)ccc1OCC(=O)NCc1ccco1,-0.782%
12,Cc1cc(C)c(NC(=O)CN2C(=O)NC(CCc3ccccc3)C2=O)c(C)c1 (stereo not shown),7.09%
13,CCn1cc(S(=O)(=O)Nc2ncccn2)cn1,5.11%
14,CC(C)(C)OC(=O)N1CCN(C(=O)c2nc[nH]c2C(=O)N2CCN(c3ccccc3)CC2)CC1,13.5%
15,Nc1cccc(NP(=O)(c2ccccc2)c2ccccc2)c1,9.22%
16,COC(=O)c1cc(S(=O)(=O)N2CCN(c3ccccc3)CC2)c[nH]1,14.4%
17,CCOc1ccc(NC(=O)CSc2ccc(-c3ccco3)nn2)cc1,13%
18,O=C(c1cccc(F)c1)N1CCCN(C(=O)c2cccc(F)c2)CC1,7.61%
19,Nc1cc(OC(=O)c2ccc(F)cc2)nn1S(=O)(=O)c1ccccc1,16.5%
20,Cn1cc(C(=O)c2ccccc2)c2ccccc21,9.75%
21,COc1ccc(C=O)cc1COc1ccc(F)cc1F,6.44%
22,CSc1nnc(C2CCN(CC(=O)Nc3ccccc3N3CCOCC3)CC2)n1C(C)C,6.42%

row,SMILES,"hERG current change (%, negative = inhibition) at 1uM"
1,Cc1ccc(NC(=O)C2CCN(C(=O)NCc3ccccc3)CC2)cc1C,16.2%
2,Cc1sc(NC(=O)C2CCCCC2C(=O)O)c(C(N)=O)c1C (stereo not shown),5.48%
3,CCSc1ncnc2sc(C)c(C)c12,6.19%
4,COC(=O)C1CCN(C(=O)/C=C/c2ccc3c(c2)OCO3)CC1,12.1%
5,CC1CCCCC1NC(=O)c1ccc(S(=O)(=O)NCc2ccco2)cc1 (stereo not shown),13.2%
6,O=C(NCc1ccc2c(c1)OCO2)C(=O)NCC1OCCCN1S(=O)(=O)c1cc(F)ccc1F (stereo not shown),10.5%
7,CC(O)C(NS(=O)(=O)c1ccc(Cl)cc1)C(=O)OCc1cc([N+](=O)[O-])cc2c1OCOC2 (stereo not shown),2.53%
8,CCC[N+](C)(C)C(C)C(OC(C)=O)c1ccccc1.[I-] (stereo not shown),7.18%
9,Cc1cc(C)c2c(=O)[nH]c(=O)n(Cc3ccccc3)c2n1,-6.19%
10,COC(=O)Nc1ccc(S(=O)(=O)N2CCCC(C(=O)Nc3cccc4c3OCCO4)C2)cc1 (stereo not shown),14%
11,CCc1nnc(NC(=O)CN2CCN(Cc3ccc(F)cc3)CC2)s1,0.777%
12,Nc1nc(SCc2ccc(Cl)c(Cl)c2)n[nH]1,11.6%
13,Cc1c(S(=O)(=O)N2CCN(c3cccc(C(F)(F)F)c3)CC2)c(=O)n(C)c(=O)n1C,12.9%
14,O=C(NNC(=O)C1CCN(C(=O)Nc2ccccc2)CC1)c1ccc(F)cc1,11.4%
15,NC(=O)c1sc(=S)n(-c2ccc(Br)cc2)c1N,-8.79%
16,CCOC(=O)n1c(=O)n(Cc2cccc(F)c2)c2ccccc21,6.33%
17,CCOC(=O)c1nonc1NC(C)=O,15.9%
18,NC(=O)C1CCN(CCCNC2CC(=O)N(Cc3ccc(N4CCCC4=O)cc3)C2=O)CC1 (stereo not shown),5.72%
19,O=C(CSc1nc2ccccc2o1)NCC(=O)c1ccccc1,1.93%
20,O=C(CNC(=O)c1ccc2c(c1)OCCO2)N/N=C/c1ccc([N+](=O)[O-])cc1,17.4%
21,CCOC(=O)Cn1c(=NC(=O)c2ccc([N+](=O)[O-])s2)sc2ccccc21,-2.02%
22,COc1ccc(S(=O)(=O)N2CCN(c3nc(-c4cccnc4)nc4ccccc34)CC2)cc1,-1.23%
